Measurements published in PubChem BioAssay (Tox21).
Values joined by “and” are separate entries in the source; they are usually repeats but may differ in a detail not shown here. Equal values may be shown once. The inconclusive results got no clear call from the source; some entries with a clear call stand among them for comparison. For some of these results: Where the call is inconclusive, the potency comes from a doubtful curve fit. More than one record can exist for a structure, and the calls need not agree. Active and inactive are the calls of the source. Unless noted, calls come from the whole dose curve; as a rule, active = well fitted curve in the direction sought with a large enough effect in the repeat runs; inconclusive = weak or mixed curves; inactive = no such curve, though single readings can be large; an effect the other way counts as inactive or inconclusive.

How the values were obtained:
[1] = molecular target: Peroxisome proliferator-activated receptor gamma (Homo sapiens) (UniProt P37231); experiment: qHTS assay to identify small molecule agonists of the peroxisome proliferator-activated receptor gamma (PPARg) signaling pathway (AID 743094; active = well fitted activation curve with a large enough effect in the signal ratio in the repeat runs, not every such curve was filed as active; inconclusive = weak or mixed curves, or effect the other way; inactive = no such curve, though single readings can be large or run the other way; the % refers to the signal ratio; for activation: % is set by controls: 0 for no effect and ±100 for the full control effect); conditions: HEK293H PPARg-UAS-bla, beta-lactamase FRET ratio, 17 h
In short: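 Agonist activity was taken from a beta-lactamase reporter (FRET substrate, 1 h at room temperature) in HEK293H cells carrying a PPARg UAS-bla construct. Compounds in DMSO were incubated 17 h at 37C after a 5 h cell pre-incubation.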

[2] = molecular target: Peroxisome proliferator-activated receptor gamma (Homo sapiens) (UniProt P37231); experiment: qHTS assay to identify small molecule antagonists of the peroxisome proliferator-activated receptor gamma (PPARg) signaling pathway (AID 743191; calls by dose curve; note: nearly all actives have a fitted effect of over 30% in size; for ratio activity, negative = inhibition: % is set by controls: 0 for no effect and ±100 for the full control effect); conditions: HEK293H PPARg-UAS-bla, beta-lactamase ratio, antagonist, 17 h; ratio activity, negative = inhibition: at 62.6 µM (top of the series) unless noted
In short: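 GeneBLAzer PPARg UAS-bla HEK293H cells carrying a UAS-driven beta-lactamase reporter were plated at 3000 cells/well, preincubated 5 h at 37C, then given compound for 17 h at 37C; LiveBLAzer B/G FRET substrate was read after 1 h at room temperature.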

[3] = qHTS assay to identify small molecule antagonists of the peroxisome proliferator-activated receptor gamma (PPARg) signaling pathway - cell viability counter screen (AID 743194); conditions: PPARg-bla HEK293H viability, CellTiter-Glo luminescence, 17 h, co-treated with 50 nM rosiglitazone; activity change, negative = cytotoxicity: at 62.6 µM (top of the series) unless noted; note: nearly all actives have a fitted effect of over 55% in size
In short: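 PPARg-UAS-bla HEK293H cells were plated, rested 5 h at 37 C, then treated with compounds plus rosiglitazone (50 nM final) for 17 h at 37 C; viability was then read by CellTiter-Glo luminescence after 30 min at room temperature.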

[4] = qHTS assay for small molecule activators of the heat shock response signaling pathway - cell viability counter screen (AID 743209); conditions: HSE-bla HeLa viability, CellTiter-Glo luminescence, 5 h; activity change, negative = cytotoxicity: at 62.6 µM (top of the series) unless noted; note: nearly all actives have a fitted effect of over 50% in size
In short: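 Cytotoxicity counter screen run in the same wells as the heat-shock bla reporter assay: HeLa HSE-bla cells, 5 h compound exposure at 37 C, viability read by CellTiter-Glo luminescence.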

[5] = qHTS assay to identify small molecule agonists of the peroxisome proliferator-activated receptor delta (PPARd) signaling pathway - cell viability counter screen (AID 743211); conditions: PPARd-bla HEK293H viability, CellTiter-Glo luminescence, 17 h; activity change, negative = cytotoxicity: at 62.6 µM (top of the series); note: nearly all actives have a fitted effect of over 55% in size
In short: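 PPARd-bla HEK293H cells (3000/well) were pre-incubated 5 h at 37 C, then exposed to compound for 17 h at 37 C. After 2 h with LiveBLAzer substrate, CellTiter-Glo was added to the same wells; luminescence read after 30 min at room temperature.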

[6] = qHTS assay to identify small molecule antagonists of the peroxisome proliferator-activated receptor delta (PPARd) signaling pathway - cell viability counter screen (AID 743213); conditions: PPARd-bla HEK293H viability, CellTiter-Glo luminescence, 17 h; viability change, negative = cytotoxic: at 62 µM (top of the series) unless noted; note: nearly all actives have a fitted effect of over 50% in size
In short: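 Same-well viability: cells pre-incubated 5 h, dosed with compound plus 300 nM L165041, kept 17 h at 37 C, FRET substrate 2 h RT, then CellTiter-Glo 30 min RT and luminescence.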

[7] = molecular target: Peroxisome proliferator-activated receptor delta (Homo sapiens) (UniProt Q03181); experiment: qHTS assay to identify small molecule antagonists of the peroxisome proliferator-activated receptor delta (PPARd) signaling pathway (AID 743215; active = well fitted inhibition curve with a large enough effect in the signal ratio in the repeat runs, not every such curve was filed as active; inconclusive = weak or mixed curves, or effect the other way; inactive = no such curve, though single readings can be large or run the other way; the % refers to the signal ratio;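 note: cells stimulated with agonist L165041 at 300 nM final during compound exposure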; for ratio activity, negative = inhibition: % is set by controls: 0 for no effect and ±100 for the full control effect); conditions: HEK293H PPARd-UAS-bla, beta-lactamase FRET ratio, antagonist, 17 h; ratio activity, negative = inhibition: at 62 µM (top of the series) unless noted
In short: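 Agonist L165041 (300 nM final) added with compound to PPARd-bla HEK293H UAS-bla reporter cells; 17 h incubation at 37 C. Read-out: LiveBLAzer FRET substrate, 2 h at room temperature, fluorescence intensity.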

[8] = qHTS assay to identify small molecule agonists of the farnesoid-X-receptor (FXR) signaling pathway - cell viability counter screen (AID 743218); conditions: FXR-bla HEK293T viability, CellTiter-Glo luminescence, 16 h; viability change, negative = cytotoxic: at 62.6 µM (top of the series) unless noted; note: nearly all actives have a fitted effect of over 45% in size
In short: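 Viability counter screen in the same wells: CellTiter-Glo luminescence, 30 min room-temperature incubation, measured after the beta-lactamase read. Cells were GeneBLAzer FXR-UAS-bla HEK 293T, compound-treated 16 h at 37C.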

[9] = molecular target: Bile acid receptor (Homo sapiens) (UniProt Q96RI1); experiment: qHTS assay to identify small molecule agonists of the farnesoid-X-receptor (FXR) signaling pathway (AID 743220; active = well fitted activation curve with a large enough effect in the signal ratio in the repeat runs, not every such curve was filed as active; inconclusive = weak or mixed curves, or effect the other way; the % refers to the signal ratio); conditions: HEK293T FXR-UAS-bla, beta-lactamase FRET ratio, 16 h; activation: at 62.6 µM (top of the series) unless noted
In short: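 FXR-UAS-bla HEK 293T cells carrying a UAS-driven beta-lactamase reporter were plated for 5 h at 37C/5% CO2, then exposed to DMSO-dissolved Tox21 10K compounds for 16 h at 37C. A LiveBLAzer B/G FRET substrate was loaded for 2 h at room temperature before fluorescence reading.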

[10] = molecular target: Vitamin D3 receptor (Homo sapiens) (UniProt P11473); experiment: qHTS assay to identify small molecule agonists of the vitamin D receptor (VDR) signaling pathway (AID 743222; calls by dose curve); conditions: HEK293T VDR-UAS-bla, beta-lactamase FRET ratio, 16 h; activation: at 63.5 µM (top of the series) unless noted
In short: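 Agonist mode, beta-lactamase reporter: fluorescence from LiveBLAzer B/G FRET substrate (2 h, room temperature) read after 16 h compound treatment at 37 C of VDR-bla cells, which were pre-incubated 4 h after seeding.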

[11] = molecular target: Vitamin D3 receptor (Homo sapiens) (UniProt P11473); experiment: qHTS assay to identify small molecule antagonists of the vitamin D receptor (VDR) signaling pathway (AID 743223; active = well fitted inhibition curve with a large enough effect in the signal ratio in the repeat runs, not every such curve was filed as active; inconclusive = weak or mixed curves, or effect the other way; inactive = no such curve, though single readings can be large or run the other way; the % refers to the signal ratio; for activity change, negative = inhibition: % is set by controls: 0 for no effect and ±100 for the full control effect); conditions: VDR-UAS-bla HEK293T, beta-lactamase FRET ratio, 16 h
In short: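 VDR-bla cells were treated with compound plus 3 nM final 1alpha,25-dihydroxyvitamin D3 for 16 h at 37C. Beta-lactamase reporter read by B/G FRET substrate fluorescence after 2 h at room temperature. qHTS format.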

[12] = qHTS assay to identify small molecule antagonists of the vitamin D receptor (VDR) signaling pathway - cell viability counter screen (AID 743225); conditions: VDR-bla HEK293T viability, CellTiter-Glo luminescence, 16 h; viability change, negative = cytotoxic: at 61 µM (top of the series) unless noted; note: nearly all actives have a fitted effect of over 50% in size
In short: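 VDR-UAS-bla HEK 293T cells were plated and incubated 4 h at 37C, then dosed with compound plus 3 nM (final) 1-alpha,25-dihydroxyvitamin D3 for 16 h. After the 2 h beta-lactamase read, viability in the same wells was read as CellTiter-Glo luminescence after 30 min at room temperature.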

[13] = molecular target: Peroxisome proliferator-activated receptor delta (Homo sapiens) (UniProt Q03181); experiment: qHTS assay to identify small molecule agonists of the peroxisome proliferator-activated receptor delta (PPARd) signaling pathway (AID 743212; calls by dose curve); conditions: HEK293H PPARd-UAS-bla, beta-lactamase FRET ratio, 17 h; activation: at 62.6 µM (top of the series) unless noted
In short: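 Beta-lactamase reporter read by fluorescence (LiveBLAzer B/G FRET, 2 h, room temperature). Test agents, in DMSO, incubated at 37 C with PPARd-bla HEK293H cells.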

[14] = molecular target: Bile acid receptor (Homo sapiens) (UniProt Q96RI1); experiment: qHTS assay to identify small molecule antagonists of the farnesoid-X-receptor (FXR) signaling pathway (AID 743217; active = well fitted inhibition curve with a large enough effect in the signal ratio in the repeat runs, not every such curve was filed as active; inconclusive = weak or mixed curves, or effect the other way; inactive = no such curve, though single readings can be large or run the other way; the % refers to the signal ratio); conditions: HEK293T FXR-UAS-bla, beta-lactamase ratio, CDCA-stimulated, 16 h; activity change, negative = inhibition: at 62.6 µM (top of the series) unless noted
In short: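 Antagonist mode: chenodeoxycholic acid at 50 uM final stimulates a UAS-driven beta-lactamase reporter in HEK 293T FXR-bla cells during 16 h, 37C compound exposure. Read-out is FRET substrate fluorescence after 2 h at room temperature.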

[15] = activity change, negative = inhibition: at 61 µM (top of the series) unless noted
[16] = activation: at 57 µM (top of the series) unless noted
Potency is the fitted concentration of half-maximal effect; tags give direction and shape of the fitted curve or compound fluorescence and quenching.

Sequence of UniProt Q03181 (Q03181 whole entry, looked up): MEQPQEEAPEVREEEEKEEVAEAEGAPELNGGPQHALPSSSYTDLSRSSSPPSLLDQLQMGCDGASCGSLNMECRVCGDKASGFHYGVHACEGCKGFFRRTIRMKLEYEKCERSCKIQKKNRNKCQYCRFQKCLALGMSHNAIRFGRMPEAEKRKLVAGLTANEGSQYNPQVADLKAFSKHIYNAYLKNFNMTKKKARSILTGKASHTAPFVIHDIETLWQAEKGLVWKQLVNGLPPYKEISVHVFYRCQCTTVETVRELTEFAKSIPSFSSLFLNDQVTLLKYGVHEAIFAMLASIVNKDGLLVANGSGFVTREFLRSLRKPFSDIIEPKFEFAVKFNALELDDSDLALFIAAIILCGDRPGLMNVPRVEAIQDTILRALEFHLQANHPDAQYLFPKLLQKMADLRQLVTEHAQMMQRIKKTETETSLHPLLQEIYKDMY
Sequence of UniProt Q96RI1 (Q96RI1 whole entry, looked up): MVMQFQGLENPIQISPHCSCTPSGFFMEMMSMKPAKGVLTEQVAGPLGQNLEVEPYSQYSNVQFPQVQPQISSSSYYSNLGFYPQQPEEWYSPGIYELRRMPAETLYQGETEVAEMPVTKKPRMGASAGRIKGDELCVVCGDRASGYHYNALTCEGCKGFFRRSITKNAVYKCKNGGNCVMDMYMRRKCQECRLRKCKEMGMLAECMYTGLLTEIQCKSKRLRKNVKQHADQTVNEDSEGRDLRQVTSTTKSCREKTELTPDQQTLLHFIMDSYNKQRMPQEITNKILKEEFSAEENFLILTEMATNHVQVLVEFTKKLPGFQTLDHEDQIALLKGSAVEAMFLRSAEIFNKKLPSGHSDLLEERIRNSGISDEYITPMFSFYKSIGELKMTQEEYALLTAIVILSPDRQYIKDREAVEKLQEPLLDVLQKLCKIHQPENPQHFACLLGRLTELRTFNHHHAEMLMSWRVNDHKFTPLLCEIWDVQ
Sequence of UniProt P11473 (P11473 whole entry, looked up): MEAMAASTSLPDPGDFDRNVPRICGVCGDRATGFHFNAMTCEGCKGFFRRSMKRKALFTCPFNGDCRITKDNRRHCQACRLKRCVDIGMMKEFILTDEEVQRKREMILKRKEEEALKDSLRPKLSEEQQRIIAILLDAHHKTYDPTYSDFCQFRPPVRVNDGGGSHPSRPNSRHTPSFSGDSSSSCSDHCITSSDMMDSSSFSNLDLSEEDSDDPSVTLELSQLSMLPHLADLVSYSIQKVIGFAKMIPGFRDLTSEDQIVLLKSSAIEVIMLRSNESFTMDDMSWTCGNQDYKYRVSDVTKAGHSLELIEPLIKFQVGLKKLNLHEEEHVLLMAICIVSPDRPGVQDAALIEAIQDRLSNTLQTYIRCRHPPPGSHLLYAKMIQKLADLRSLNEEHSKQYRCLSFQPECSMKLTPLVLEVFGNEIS
Sequence of UniProt P37231 (P37231 whole entry, looked up): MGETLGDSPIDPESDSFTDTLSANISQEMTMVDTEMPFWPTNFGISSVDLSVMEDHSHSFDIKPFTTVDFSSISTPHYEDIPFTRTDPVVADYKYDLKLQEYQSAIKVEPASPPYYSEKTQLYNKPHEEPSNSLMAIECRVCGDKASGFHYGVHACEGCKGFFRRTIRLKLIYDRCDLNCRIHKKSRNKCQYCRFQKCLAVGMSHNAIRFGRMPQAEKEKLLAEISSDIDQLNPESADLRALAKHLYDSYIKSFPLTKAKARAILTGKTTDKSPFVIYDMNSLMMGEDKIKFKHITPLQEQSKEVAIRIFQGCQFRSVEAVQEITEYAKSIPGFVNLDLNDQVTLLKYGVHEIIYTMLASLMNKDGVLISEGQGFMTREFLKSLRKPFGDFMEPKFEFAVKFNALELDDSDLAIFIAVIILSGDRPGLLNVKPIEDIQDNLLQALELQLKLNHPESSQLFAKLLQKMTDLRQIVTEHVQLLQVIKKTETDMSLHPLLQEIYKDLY

## CC[C@H](C)C(=O)O[C@H]1C[C@@H](C)C=C2C=C[C@H](C)[C@H](CC[C@@H]3C[C@@H](O)CC(=O)O3)[C@H]21
[1]; at 57 µM (top of the series)
  activation: inconclusive: -19.1%
[1]; at 78.9 µM (top of the series)
  activation: inconclusive: -12.6%
[2]
  Potency: inconclusive: 62.5 µM [inhibitor]
  ratio activity, negative = inhibition: inconclusive: 9.23%
[3]
  Potency: inconclusive: 70.1 µM [cytotoxic, single point]
[4]
  Potency: inconclusive: 62.5 µM [cytotoxic, single point] and inconclusive: 54.7 µM [cytotoxic, single point] and inconclusive: 119 nM [cytotoxic, single point]
[5]
  Potency: inconclusive: 62.5 µM [cytotoxic, single point] and inconclusive: 54.7 µM [cytotoxic, single point] and inconclusive: 37.6 µM [cytotoxic, partial curve, poor fit]
[6]
  Potency: inconclusive: 24.9 µM [cytotoxic, partial curve, poor fit] and inconclusive: 10.9 µM [cytotoxic, partial curve, poor fit]
[7]
  ratio activity, negative = inhibition: inconclusive: -1.14%
[8]
  Potency: active: 62.5 µM and inconclusive: 8.4 nM [cytotoxic, full curve, poor fit]
[9]
  Potency: inconclusive: 3.76 µM [rising, partial curve, poor fit]
[10]
  Potency: inconclusive: 48.7 µM [rising, partial curve, poor fit]
[11]; [15]
  Potency: inconclusive: 24.4 µM [activator, full curve] and inconclusive: 16.9 µM [fluorescent, partial curve, poor fit]
  activity change, negative = inhibition: inconclusive: 3.46% [at 78.8 µM]
[12]
  Potency: inconclusive: 0.557 µM [cytotoxic, single point]

## CC(=O)O[C@]1(C(C)=O)CC[C@H]2[C@@H]3C[C@H](C)C4=CC(=O)CC[C@]4(C)[C@H]3CC[C@@]21C
[1]; [16]
  Potency: inconclusive: 17.4 µM [rising, full curve]
  activation: inconclusive: 1.94%
[2]
  ratio activity, negative = inhibition: inconclusive: -28.6%
[3]
  Potency: inconclusive: 0.0389 µM [cytotoxic, full curve, poor fit]
[13]
  Potency: inconclusive: 9.76 µM [rising, partial curve, poor fit]
[7]
  Potency: inconclusive: 7.76 µM [fluorescent]
[14]
  Potency: inconclusive: 26.6 µM [rising, partial curve, poor fit]
[8]
  Potency: inactive
[9]
  Potency: inconclusive: 5.49 µM [fluorescent, full curve, poor fit]
[10]
  Potency: inconclusive: 24.5 µM [fluorescent, partial curve, poor fit]
  activation: inconclusive: -0.288%
[11]; [15]
  activity change, negative = inhibition: inconclusive: 8.11%
[11]; at 61 µM (top of the series)
  activity change, negative = inhibition: inactive: -0.616%
